Data published in article PMC4336329 (PLoS ONE, 2015).
Screen size: about 310,000 compounds; about 14,000 (4.5%) showed an effect of 50% or more. Effects have a minus sign here. Some of the results follow.

Molecular target: human ether-à-go-go-related gene (hERG) potassium channel (human, UniProt Q12809)
Assay: primary screen, population patch clamp on CHO cells stably expressing hERG
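Note: peak tail current of the secondary pulse compared with the same well before compound.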

Chain of human ether-à-go-go-related gene (hERG) potassium channel (Q12809 whole entry, looked up): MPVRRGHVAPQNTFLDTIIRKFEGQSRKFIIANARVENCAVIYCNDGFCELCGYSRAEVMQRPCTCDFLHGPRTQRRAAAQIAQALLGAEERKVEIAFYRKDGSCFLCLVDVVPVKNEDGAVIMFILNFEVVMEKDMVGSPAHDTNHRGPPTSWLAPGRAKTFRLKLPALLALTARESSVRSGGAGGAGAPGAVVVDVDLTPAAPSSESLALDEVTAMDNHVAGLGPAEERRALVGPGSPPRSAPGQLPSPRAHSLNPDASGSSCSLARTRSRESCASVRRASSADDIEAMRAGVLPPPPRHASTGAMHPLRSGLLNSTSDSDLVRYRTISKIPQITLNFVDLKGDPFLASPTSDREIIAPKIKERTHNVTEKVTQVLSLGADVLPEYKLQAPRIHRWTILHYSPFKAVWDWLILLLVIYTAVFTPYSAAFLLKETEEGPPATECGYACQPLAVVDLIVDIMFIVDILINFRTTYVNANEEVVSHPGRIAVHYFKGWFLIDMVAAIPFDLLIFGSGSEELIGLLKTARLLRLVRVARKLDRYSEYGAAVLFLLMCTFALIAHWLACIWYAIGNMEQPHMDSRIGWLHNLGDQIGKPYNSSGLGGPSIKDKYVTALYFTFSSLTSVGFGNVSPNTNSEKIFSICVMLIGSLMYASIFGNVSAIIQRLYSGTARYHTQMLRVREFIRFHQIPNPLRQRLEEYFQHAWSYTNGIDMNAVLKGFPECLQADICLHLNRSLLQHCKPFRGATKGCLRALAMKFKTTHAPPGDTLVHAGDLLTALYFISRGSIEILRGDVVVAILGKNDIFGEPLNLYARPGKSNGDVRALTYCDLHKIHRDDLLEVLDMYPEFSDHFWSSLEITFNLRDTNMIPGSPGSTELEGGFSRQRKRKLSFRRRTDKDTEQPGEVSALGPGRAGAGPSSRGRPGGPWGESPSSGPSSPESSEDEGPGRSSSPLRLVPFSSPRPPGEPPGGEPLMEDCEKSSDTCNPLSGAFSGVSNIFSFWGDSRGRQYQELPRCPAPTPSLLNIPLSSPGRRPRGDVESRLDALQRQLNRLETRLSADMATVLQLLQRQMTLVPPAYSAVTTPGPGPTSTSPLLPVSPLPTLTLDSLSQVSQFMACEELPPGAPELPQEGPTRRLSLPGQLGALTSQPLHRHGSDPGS

SMILES	hERG current change (%, negative = inhibition) at 10uM [%]
Cn1c(-c2ccccc2)cnc1SCC(=O)NCc1ccco1	0.977
CC1CCC(NC(=O)C2CCN(C(=O)Nc3ccccc3)CC2)CC1 (stereo not shown)	11.9
COc1ccc2c(c1OC)C(=O)OC2c1c(O)nc(SC)n(-c2ccccc2)c1=O (stereo not shown)	-2.74
CCOC(=O)C1CCN(/C=C2/C(=O)NC(=S)N(c3cccc(OC)c3)C2=O)CC1	19.4
CC(O)Cc1cn([C@@H](CCCCNC(=O)OC(C)(C)C)C(=O)N2CCN(C(=O)OC(C)(C)C)CC2)nn1 (stereo partly shown)	8.15
O=S(=O)(c1cccc(S(=O)(=O)N2CCOCC2)c1)N1CCCCCC1	1.86
Cc1ccc(C)n1-c1cc(S(=O)(=O)N2CCOCC2)ccc1N1CCCC1	12.9
Nc1c(C(=O)N/N=C/c2ccc(Cl)cc2)cnn1-c1ccccc1	12.9
COCC(C)NS(=O)(=O)c1ccc(C(=O)NC(Cc2ccccc2)c2ccccc2)cc1 (stereo not shown)	-30.6
Nc1[nH]c(N=NC(=O)c2ccc(F)cc2)c2ccccc12	3.71
O=C(O)CC1c2ccccc2CCN1S(=O)(=O)c1cccs1 (stereo not shown)	14
COc1ccc(N(CC(=O)NCCSCc2ccco2)S(=O)(=O)c2ccccc2)cc1OC	-24.1
CC(C)Oc1ccc(S(=O)(=O)N2CCOCC2)cc1NC(=O)C1CCCC1	-2.42
CC1Cc2cc(S(=O)(=O)N3CCN(c4ccccc4F)CC3)ccc2N1C(=O)C1CC1 (stereo not shown)	16.9
O=C(CSc1nnc(NC2CCCCC2)s1)NN1C(=O)NC2(CCCCC2)C1=O	8.23
CCOc1ccc(CCNC(=O)CCn2ccc3cc(S(=O)(=O)N4CCCC4)ccc32)cc1	-25.4
Cc1cc([N+](=O)[O-])nn1CCCC(=O)Nc1sc2c(c1C(N)=O)CCCC2	-6.34
CCC(CC)C(=O)N1CC(=O)Nc2ccc(Br)cc2C1c1ccccc1 (stereo not shown)	-73.5
CCCOC(=S)Nc1ccccc1	6.18
O=C(Nc1cccnc1)OC1CCCC1	34.1
COc1ccc2[nH]c(=O)c(CN(C(=O)c3cccnc3)c3ccccc3C)cc2c1	3.25
COc1ccc(C(=O)Nc2ccc(Cc3ccncc3)cc2)cc1Br	-3.93

SMILES	hERG current change (%, negative = inhibition) at 10uM [%]
CCOc1ccc(N=C2NC(=O)C(CC(=O)Nc3ccc(OC)cc3)S2)cc1 (stereo not shown)	16.8
O=C(/C=C/c1ccc(Cl)cc1Cl)NCCSc1ccccc1	1.36
Cc1ccc2cc(CCNC(=O)c3ccc(S(=O)(=O)N4CCOCC4)cc3)c(=O)[nH]c2c1C	16
COc1ccc(C(=O)/C=C/Nc2cc(C)on2)cc1	3.9
CC(C)/C=C(/C(=O)c1ccc(Cl)cc1Cl)n1cncn1	20.6
O=C(Nc1ccccc1Cl)c1ccc2nsnc2c1	5.5
Cc1cc(-c2ccccc2)n2ncc(C#N)c2n1	-13.5
COc1ccc(CCNC(=O)CCCc2ccccc2)cc1OC	8.91
Fc1ccc(NC(=S)NC2CCCCC2)c(F)c1F	8.12
Cc1cccc(C)c1NC(=S)NCc1ccncc1	15.1
Cc1ccc(N(Cc2ccccc2)C(=O)c2cccc(S(=O)(=O)N3CC(C)OC(C)C3)c2)cc1 (stereo not shown)	-7.01
COCCNC(=O)C(=O)N/N=C(\C)CC(=O)Nc1cccc(C(F)(F)F)c1	8.17
Cn1cc(CN2CCC(C(O)CCc3ccccc3)CC2)c(-c2ccccc2F)n1 (stereo not shown)	-71.3
O=C(c1ccccc1Cc1ccccc1)N1CCN(S(=O)(=O)c2ccccc2F)CC1	-20.3
CN(Cc1ccccc1)c1nc2c(c(=O)[nH]c(=O)n2C)n1CCCc1ccccc1	-51.8
CCOC(=O)c1c(NC(=O)CN2CCC(C)CC2)sc(C)c1C	-0.64
Cc1sc2nc(COC(=O)c3ccc(N4CCCC(C)C4)c([N+](=O)[O-])c3)[nH]c(=O)c2c1C (stereo not shown)	26.9
CCCCC(=O)NC(NC(=S)N1CCOCC1)C(Cl)(Cl)Cl (stereo not shown)	-26.7
COc1ccccc1NS(=O)(=O)c1cc(NC(=O)c2cnccn2)ccc1N1CCOCC1	-18.9
CCN1CCc2c(sc(N)c2C#N)C1	5.55
O=C(NCCCn1ccnc1)c1ccc(Cl)cc1	-2.72
COc1cc(C(O)P(=O)(OCCC(C)C)c2ccc(N(C)C)cc2)cc(OC)c1OC (stereo not shown)	10.9

SMILES	hERG current change (%, negative = inhibition) at 10uM [%]
Cc1ccc(S(=O)(=O)N2CCCCC2C(=O)O)cc1 (stereo not shown)	6.47
COc1ccc(C(=O)Nn2c(SCC(=O)N3CCC(C)CC3)nc3ccccc3c2=O)cc1	-20.8
COc1ccc(N2CCN(c3oc(COc4ccccc4Cl)nc3C#N)CC2)cc1	0.959
Cc1ccc(C(C)C)c(OCCNS(C)(=O)=O)c1	5.94
CC1(C)Cc2c(sc3ncn4c(=S)[nH]nc4c23)CO1	29.7
O=C(c1c(O)c2ccccc2oc1=O)C1CCC1	7.19
CCOc1ccc(NC(=O)CCC(=O)OC)cc1	-1.95
CCCn1c(=N)n(CCOc2ccc(OC)cc2)c2ccccc21	-59.5
Cc1csc(SCC(=O)Nc2nc(-c3ccccc3)cs2)n1	-8.35
CC(C)c1ccc(N(C(=O)c2csnn2)C(C(=O)NC(C)(C)C)c2ccncc2)cc1 (stereo not shown)	-42.8
CC1=C(C#N)C(NC(=O)C2CC2)(C(F)(F)F)C(=O)N1 (stereo not shown)	-2.06
COc1ccc(C(=O)Nc2cnc(NC(=O)c3cccs3)cc2C)cc1	2.82
O=C(O)c1cccc2sc3cc(Cl)ccc3c(=O)c12	3.22
O=S(=O)(Nc1ccc(Cc2ccncc2)cc1)c1ccc(Cl)cc1	12.4
COc1ccc(NC(=O)COC(=O)CNC(=O)C2CCCCC2)cc1	6.53
OCCN(CCO)c1ncnc2c1oc1ccc(Br)cc12	-29.7
O=C1/C(=C\c2cccnc2)SC(=S)N1c1ccc(F)cc1	12.3
COc1ccc(C(=O)N2CCN(c3nc(C4CC4)nc4sc(C)c(C)c34)CC2)cc1.Cl	-23.8
Cc1nn(C)c(C(=O)Nc2cccc(CN3CCOCC3)c2)c1Br	-7.27
Cc1cc(NC(=O)c2cc(-c3ccc(Br)cc3)on2)no1	17.6
O=C(COC(=O)c1cccc(S(=O)(=O)N2CCCC2)c1)Nc1ccccc1	26.8
O=C(Nc1ccccc1)N(CCCN1CCOCC1)Cc1cc2cc3c(cc2[nH]c1=O)OCCO3	-2.99

SMILES	hERG current change (%, negative = inhibition) at 10uM [%]
COCCn1nnnc1C(C(C)C)N1CCC(Cc2ccccc2)CC1.Cl (stereo not shown)	-46.4
CN(/C(=N\S(=O)(=O)c1ccccc1)c1ccccc1)c1ccc(O)cc1	-0.143
OC(c1ccccc1)c1nccc2ccccc12 (stereo not shown)	9.28
Cc1ccc(C)c(N2CCN(C(=O)CCCCCn3c(=S)[nH]c4ccc(N5CCOCC5)cc4c3=O)CC2)c1	9.11
CCCNC(=O)c1[nH]c(C)c(C(C)=O)c1C	19.3
CCCc1nn2c(=O)cc(COc3ccc(NC(=O)c4ccco4)cc3)nc2s1	5.08
Cn1nnc2cc(C(=O)NC3CC3)ccc21	-23.8
CCOC(=O)C1CCN(C(=O)C(C)Sc2ccc(Cl)cc2)CC1 (stereo not shown)	-27.9
O=C(CSc1nnc(-c2c[nH]c3ccccc23)n1-c1ccc(F)cc1)NCc1ccco1	-22
Cn1c(=O)c2c(nc(CN3CCCCC3)n2CCCc2ccccc2)n(C)c1=O	-29.1
COCc1cc(CN2CCCC(C(=O)c3cccc(C(F)(F)F)c3)C2)ccc1OC (stereo not shown)	-63.1
CS(=O)(=O)N1N=C(c2cccs2)CC1c1ccc(Cl)o1 (stereo not shown)	-8.09
N#Cc1c(N2CCNCC2)nc(-c2ccco2)c2c1CCCC2	-11.2
NNC(=O)CCS(=O)(=O)c1ccc2ccccc2c1	16.1
CC1CCCC(C)N1C(=O)c1ccc(S(=O)(=O)N2CCCC2)cc1 (stereo not shown)	-0.197
COCCN1C=C2C(=O)C(C)(OC(=O)C3CCCC3)C(=O)C(c3ccccc3)=C2C=C1CCCC(=O)OC (stereo not shown)	-2.4
CC(C)NCCOCCSc1ccc(Cl)cc1.O=C(O)C(=O)O	-30.2
CCO[C@@H]1OC(C(=O)N2CCN(C)CC2)=C[C@H](c2csc3ccccc23)[C@H]1CCCO	-4.86
CC(=O)CSc1nc2ccccc2o1	19.9
COc1cc2cc(C(c3nnnn3C(C)(C)C)N3CCc4ccccc43)c(=O)[nH]c2cc1OC (stereo not shown)	-8.44
COc1ccc(C(CC(=O)c2ccccc2)S(=O)(=O)c2ccc(C)cc2)cc1 (stereo not shown)	12.8
Cc1ccccc1C(=O)NC1CCN(CC(=O)N2CCCCC2C)CC1 (stereo not shown)	6.93
